{"source": "the supplement of paper PMC8728848", "binders": {"B1": {"name": "CBM32-1 (Clostridium perfringens) (protein)", "chain": "MGSSHHHHHHSSGLVPRGSHMASGVEITEGVTVTAKGNTEGNTADLAIDGDLSTYWESSNDYKWIEVDLGGIYELSKIEIFNKDEAVYKYNIYASEDGENFNKIAYKNNDNVSDSNGNVHTIDNVRAGKIRIDVVQNSNSDRVNIAEINVFG"}}, "experiment_in_all_cases": "glycan array binding signal (z-score within array); higher = stronger binding", "details_in_all_cases": "glycan notation: IUPAC condensed, linker removed", "key": {"[1]": {"biological_target": "Neu5Ac(a2-3)Gal(b1-4)[Fuc(a1-3)]GlcNAc", "outline": "(§1)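 Glycan array data were curated from 3228 arrays in the Consortium for Functional Glycomics database and kept only where the protein sequence was available. Glycan names were converted to IUPAC-condensed notation, and columns mapping to the same glycan were averaged. The binding signal is a within-array Z-score, averaged across arrays of the same protein sequence at different concentrations or buffers and across linkers. Negative Z-scores can be read as non-binding.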"}, "[2]": {"biological_target": "Neu5Ac(a2-3)Gal(b1-4)[Fuc(a1-3)]GlcNAc(b1-3)Gal", "outline": "as §1"}, "[3]": {"biological_target": "Neu5Ac(a2-3)Gal(b1-4)[Fuc(a1-3)]GlcNAc(b1-3)Gal(b1-4)GlcNAc", "outline": "as §1"}, "[4]": {"biological_target": "Neu5Ac(a2-3)Gal(b1-4)[Fuc(a1-3)]GlcNAc(b1-3)Gal(b1-4)[Fuc(a1-3)]GlcNAc(b1-3)Gal(b1-4)[Fuc(a1-3)]GlcNAc", "outline": "as §1"}, "[5]": {"biological_target": "Neu5Ac(a2-3)Gal(b1-4)[Fuc(a1-3)]GlcNAc(b1-6)[Gal(b1-3)]GalNAc", "outline": "as §1"}, "[6]": {"biological_target": "Neu5Ac(a2-3)Gal(b1-4)[Fuc(a1-3)]GlcNAc6S", "outline": "as §1"}, "[7]": {"biological_target": "Neu5Ac(a2-3)Gal6S(b1-4)GlcNAc", "outline": "as §1"}, "[8]": {"biological_target": "Neu5Ac(a2-3)Gal6S(b1-4)[Fuc(a1-3)]GlcNAc", "outline": "as §1"}, "[9]": {"biological_target": "Neu5Ac(a2-3)GalNAc", "outline": "as §1"}, "[10]": {"biological_target": "Neu5Ac(a2-3)GalNAc(b1-4)GlcNAc", "outline": "as §1"}, "[11]": {"biological_target": "Neu5Ac(a2-3)[GalNAc(b1-4)]Gal(b1-4)Glc", "outline": "as §1"}, "[12]": {"biological_target": "Neu5Ac(a2-3)[GalNAc(b1-4)]Gal(b1-4)GlcNAc", "outline": "as §1"}, "[13]": {"biological_target": "Neu5Ac(a2-3)[Neu5Ac(a2-6)]GalNAc", "outline": "as §1"}, "[14]": {"biological_target": "Neu5Ac(a2-6)Gal", "outline": "as §1"}, "[15]": {"biological_target": "Neu5Ac(a2-6)Gal(b1-4)Glc", "outline": "as §1"}, "[16]": {"biological_target": "Neu5Ac(a2-6)Gal(b1-4)GlcNAc", "outline": "as §1"}, "[17]": {"biological_target": "Neu5Ac(a2-6)Gal(b1-4)GlcNAc(b1-2)Man(a1-3)[Gal(b1-4)GlcNAc(b1-2)Man(a1-6)]Man(b1-4)GlcNAc(b1-4)GlcNAc", "outline": "as §1"}, "[18]": {"biological_target": "Neu5Ac(a2-6)Gal(b1-4)GlcNAc(b1-2)Man(a1-3)[GlcNAc(b1-2)Man(a1-6)]Man(b1-4)GlcNAc(b1-4)GlcNAc", "outline": "as §1"}, "[19]": {"biological_target": "Neu5Ac(a2-6)Gal(b1-4)GlcNAc(b1-2)Man(a1-3)[GlcNAc(b1-2)Man(b1-4)GlcNAc(b1-2)Man(a1-6)]Man(b1-4)GlcNAc(b1-4)GlcNAc", "outline": "as §1"}, "[20]": {"biological_target": "Neu5Ac(a2-6)Gal(b1-4)GlcNAc(b1-2)Man(a1-3)[Neu5Ac(a2-6)Gal(b1-4)GlcNAc(b1-2)Man(a1-6)]Man(b1-4)GlcNAc(b1-4)GlcNAc", "outline": "as §1"}, "[21]": {"biological_target": "Neu5Ac(a2-6)Gal(b1-4)GlcNAc(b1-2)Man(a1-6)[Gal(b1-4)GlcNAc(b1-2)Man(a1-3)]Man(b1-4)GlcNAc(b1-4)GlcNAc", "outline": "as §1"}, "[22]": {"biological_target": "Neu5Ac(a2-6)Gal(b1-4)GlcNAc(b1-2)Man(a1-6)[GlcNAc(b1-2)Man(a1-3)]Man(b1-4)GlcNAc(b1-4)GlcNAc", "outline": "as §1"}, "[23]": {"biological_target": "Neu5Ac(a2-6)Gal(b1-4)GlcNAc(b1-3)Gal(b1-4)GlcNAc", "outline": "as §1"}, "[24]": {"biological_target": "Neu5Ac(a2-6)Gal(b1-4)GlcNAc(b1-3)Gal(b1-4)[Fuc(a1-3)]GlcNAc(b1-3)Gal(b1-4)[Fuc(a1-3)]GlcNAc", "outline": "as §1"}, "[25]": {"biological_target": "Neu5Ac(a2-6)Gal(b1-4)GlcNAc6S", "outline": "as §1"}, "[26]": {"biological_target": "Neu5Ac(a2-6)GalNAc", "outline": "as §1"}, "[27]": {"biological_target": "Neu5Ac(a2-6)GalNAc(b1-4)GlcNAc", "outline": "as §1"}, "[28]": {"biological_target": "Neu5Ac(a2-8)Neu5Ac", "outline": "as §1"}, "[29]": {"biological_target": "Neu5Ac(a2-8)Neu5Ac(a2-3)Gal(b1-4)Glc", "outline": "as §1"}, "[30]": {"biological_target": "Neu5Ac(a2-8)Neu5Ac(a2-3)[GalNAc(b1-4)]Gal(b1-4)Glc", "outline": "as §1"}, "[31]": {"biological_target": "Neu5Ac(a2-8)Neu5Ac(a2-8)Neu5Ac", "outline": "as §1"}, "[32]": {"biological_target": "Neu5Ac(a2-8)Neu5Ac(a2-8)Neu5Ac(a2-3)Gal(b1-4)Glc", "outline": "as §1"}, "[33]": {"biological_target": "Neu5Ac(a2-8)Neu5Ac(a2-8)Neu5Ac(a2-3)[GalNAc(b1-4)]Gal(b1-4)Glc", "outline": "as §1"}, "[34]": {"biological_target": "Neu5Ac(a2-8)Neu5Ac(a2-8)Neu5Ac(a2-8)Neu5Ac(a2-3)[GalNAc(b1-4)]Gal(b1-4)Glc", "outline": "as §1"}, "[35]": {"biological_target": "Neu5Ac(b2-6)Gal(b1-4)GlcNAc", "outline": "as §1"}, "[36]": {"biological_target": "Neu5Ac(b2-6)GalNAc", "outline": "as §1"}, "[37]": {"biological_target": "Neu5Ac9Ac(a2-6)Gal(b1-4)GlcNAc", "outline": "as §1"}, "[38]": {"biological_target": "Neu5Gc(a2-3)Gal(b1-3)GlcNAc", "outline": "as §1"}, "[39]": {"biological_target": "Neu5Gc(a2-3)Gal(b1-3)[Fuc(a1-4)]GlcNAc", "outline": "as §1"}, "[40]": {"biological_target": "Neu5Gc(a2-3)Gal(b1-4)Glc", "outline": "as §1"}, "[41]": {"biological_target": "Neu5Gc(a2-3)Gal(b1-4)GlcNAc", "outline": "as §1"}, "[42]": {"biological_target": "Neu5Gc(a2-3)Gal(b1-4)[Fuc(a1-3)]GlcNAc", "outline": "as §1"}, "[43]": {"biological_target": "Neu5Gc(a2-6)Gal(b1-4)GlcNAc", "outline": "as §1"}, "[44]": {"biological_target": "Neu5Gc(a2-6)GalNAc", "outline": "as §1"}, "[45]": {"biological_target": "Neu5Gc(b2-6)Gal(b1-4)GlcNAc", "outline": "as §1"}}, "note": "The other results are listed elsewhere or left out."}
{"binder": "B1", "values": [{"measurement": "glycan array binding signal (z-score)", "setting": "[1]", "result": -0.4}, {"measurement": "glycan array binding signal (z-score)", "setting": "[2]", "result": -0.613}, {"measurement": "glycan array binding signal (z-score)", "setting": "[3]", "result": 0.808}, {"measurement": "glycan array binding signal (z-score)", "setting": "[4]", "result": 0.396}, {"measurement": "glycan array binding signal (z-score)", "setting": "[5]", "result": 0.681}, {"measurement": "glycan array binding signal (z-score)", "setting": "[6]", "result": -0.223}, {"measurement": "glycan array binding signal (z-score)", "setting": "[7]", "result": 0.169}, {"measurement": "glycan array binding signal (z-score)", "setting": "[8]", "result": -0.495}, {"measurement": "glycan array binding signal (z-score)", "setting": "[9]", "result": -0.19}, {"measurement": "glycan array binding signal (z-score)", "setting": "[10]", "result": -0.457}, {"measurement": "glycan array binding signal (z-score)", "setting": "[11]", "result": -0.624}, {"measurement": "glycan array binding signal (z-score)", "setting": "[12]", "result": -0.371}, {"measurement": "glycan array binding signal (z-score)", "setting": "[13]", "result": -0.295}, {"measurement": "glycan array binding signal (z-score)", "setting": "[14]", "result": -0.623}, {"measurement": "glycan array binding signal (z-score)", "setting": "[15]", "result": -0.487}, {"measurement": "glycan array binding signal (z-score)", "setting": "[16]", "result": -0.423}, {"measurement": "glycan array binding signal (z-score)", "setting": "[17]", "result": 0.04}, {"measurement": "glycan array binding signal (z-score)", "setting": "[18]", "result": -0.381}, {"measurement": "glycan array binding signal (z-score)", "setting": "[19]", "result": -0.172}, {"measurement": "glycan array binding signal (z-score)", "setting": "[20]", "result": -0.463}, {"measurement": "glycan array binding signal (z-score)", "setting": "[21]", "result": -0.218}, {"measurement": "glycan array binding signal (z-score)", "setting": "[22]", "result": -0.62}, {"measurement": "glycan array binding signal (z-score)", "setting": "[23]", "result": 0.062}, {"measurement": "glycan array binding signal (z-score)", "setting": "[24]", "result": 0.193}, {"measurement": "glycan array binding signal (z-score)", "setting": "[25]", "result": 0.149}, {"measurement": "glycan array binding signal (z-score)", "setting": "[26]", "result": -0.5}, {"measurement": "glycan array binding signal (z-score)", "setting": "[27]", "result": -0.242}, {"measurement": "glycan array binding signal (z-score)", "setting": "[28]", "result": 0.297}, {"measurement": "glycan array binding signal (z-score)", "setting": "[29]", "result": 0.005}, {"measurement": "glycan array binding signal (z-score)", "setting": "[30]", "result": -0.358}, {"measurement": "glycan array binding signal (z-score)", "setting": "[31]", "result": -0.099}, {"measurement": "glycan array binding signal (z-score)", "setting": "[32]", "result": -0.631}, {"measurement": "glycan array binding signal (z-score)", "setting": "[33]", "result": 0.108}, {"measurement": "glycan array binding signal (z-score)", "setting": "[34]", "result": 0.537}, {"measurement": "glycan array binding signal (z-score)", "setting": "[35]", "result": -0.579}, {"measurement": "glycan array binding signal (z-score)", "setting": "[36]", "result": -0.382}, {"measurement": "glycan array binding signal (z-score)", "setting": "[37]", "result": -0.914}, {"measurement": "glycan array binding signal (z-score)", "setting": "[38]", "result": -0.339}, {"measurement": "glycan array binding signal (z-score)", "setting": "[39]", "result": -0.136}, {"measurement": "glycan array binding signal (z-score)", "setting": "[40]", "result": 3.02}, {"measurement": "glycan array binding signal (z-score)", "setting": "[41]", "result": -0.781}, {"measurement": "glycan array binding signal (z-score)", "setting": "[42]", "result": 0.039}, {"measurement": "glycan array binding signal (z-score)", "setting": "[43]", "result": -0.785}, {"measurement": "glycan array binding signal (z-score)", "setting": "[44]", "result": -0.949}, {"measurement": "glycan array binding signal (z-score)", "setting": "[45]", "result": -0.925}]}
